# Assay results from the supplement of paper PMC12632987.
# In all, about 2,300 sequences were measured (“median log2 fold change of GCK-ALFA target abundance (FLAG IP / Myc IP barcode read proportion)”: median about 0.095, lowest 2% from about -0.47 on). Some of the results follow.
# B1: LC3A_102_126 (protein)
# chain: KVEELKKKLLEKVRKEVKKLLEEDKSLSEEEKEKILKLAEELARKRLENEEIEIQHGFVDINLEDEALKLREELEKIDPELAKKIEEIIEKGVEEFRKEL
# B2: LC3A_free_8_2509 (protein)
# chain: IPQSVVDELVAKLDEMEEELVKKLKELGASRLDILEIEILIGSAIAEVYDLSDDSMETLLKSLEDSLKEIIEEAKKISEEVAELAEKHSKEILEALKAAM
# B3: LC3A_free_46_2378 (protein)
# chain: YKIEIDVYFSAMSKEKAEEAAKEIKEAAEKISKETGVKIKVEVKIITDENGETWLEVKITIEGEDEEKVKAAATKLVDKLEEIAEKHGVSLIISIEEIKE
# B4: LC3A_28_809 (protein)
# chain: SEAEKIIAAIRAQAEALRDSEDLALIEVDISGTITVEEAEAIMAEVEREAARLAKRRKVAVVINFTEPVSQEVLDTVMDRAEAIEEKYPNVSVIIALPEE
# B5: LC3A_17_544 (protein)
# chain: MEELKKELEKLLKKLEELVKELEKYDPEKAKKLKKQLEEAKKLIKAGKLREAAELLAKAAREAADAFEKLEPKYGTKASVLAMEASGLELEAIRILLKLE
# B6: LC3A_3_1885 (protein)
# chain: MEEEIEETIKLLKEAGASEETIKAFKEVIKLLKERGYEEAAKTLIEEVRELLDLPSELLLDFLKEVLETLLTEDLNEEELIEKIKEIARLTRNEGEIEEL
# B7: LC3A_28_1316 (protein)
# chain: SHIEKQLEKAEKEAEEAAAKGEDILLEVEVTGDTTLEEAEYMMDRLEEIAEKYAPKHKIDIIINVDGDVSQEVIDLIADRAEEIEEKYPNVTVIIALDEN
# B8: LC3A_free_46_2387 (protein)
# chain: AEGYIDALASPADLETIEKLAEESKKAVEAVAEKYGVKVEVEVEIIKNESGLYELYIRVKIEGDDLETVEKAADAIVEELEAIAAEHGVKLAAIISFEET
# B9: LC3A_28_1299 (protein)
# chain: MSLEEKLEEAIKKAKEAAAAGEAAVITIEVPGDADEEDIEKIKEALEEIAKILKDIPGSAIIIDIDKDVKEEHITKLMEKGEEIEKKYPNVTVIFALEER
# B10: LC3A_free_39_2250 (protein)
# chain: SAEELEEALRRAEEVAETLDEETAKAFRELIELVKDNPEAIEAVTEGVEKLKEEGGDVLEFLKEAKELVLKMQKAGKSKEEILKEIKELIEDYLNLIPLD
# B11: LC3A_28_1246 (protein)
# chain: SAIDEQLAAAKAAAEAAKAAGEEALIELTVTSEATEEDIDKIIAAMEEIAELTKDLPALSIVVNLEKGVKQEHIDKLMEAGEEIEEKYPNVTVIFALEEE
# B12: LC3A_free_8_2444 (protein)
# chain: STQKLVDEVTELLDEMEERVEEKAKELGLSELDILDLSLLIGSLIAEIISAVDKSIEEIRKIVEEDMEEIIEEARELSEEIAEIVEETKERILELIDEAE
# B13: LC3A_28_1279 (protein)
# chain: SEIEENIKEAIAKAKEAKAKGEPAVIEIKVPGNATEEEIKKVIEGLKEIAEILKDIPNQAIIIDVDSGVKQEHIDKLADEADEIEKKYPNVTVIIALDED
# B14: LC3A_28_1015 (protein)
# chain: SELDEQLEAIRKEAEEAIAKGEDVVLTLTIKGSMSDEEVREAMERLREIVLEAAKKGKVDLIIDLDASVSQEKRDIVFESADEIEEEAPNVNVIIALEER
# B15: LC3A_45_1975 (protein)
# chain: MVKAKVTIWVKREYAEEVKEALLKKMEELEKKYGDKLKVDKEALLKSYEATKNDEFVELEVLIEAETEELLNEAVDAIIDTLDEVGDHKVAMIEIEKLEP
# B16: LC3A_3_1406 (protein)
# chain: FEEIKKEILKTLKEMGASEEVLEAAEEVLKLLEKRGYLEAAKTLLEEVKELKDASDEILLDFFEDVKKYLEENDDSEEEVVKFIKEEARIAKSANEIEEL
# B17: LC3A_61_2042 (protein)
# chain: LEERFEEALEELKELGLSEEAIEKLKELYKVDPEEALELAEELVEALKAGVKKEVLEELIEKTYEEVKKAKTQEEKEAILEEAVEEVEDLINLIPLEDLE
# B18: LC3A_3_1385 (protein)
# chain: MEEEMEKTLERLREAGHSEETIEAARKALEALIEKGYENSAKTFIELLDELIHLPDELLLELFEDVLELIETEDIDEETLTEKIKEIASVYKNESEIEEL
# B19: LC3A_45_1939 (protein)
# chain: RYRATVDLLVPRELAEEALAATRAAMEELEAERGPAIRVDHAALDASYAASADEDDVYLRVEIVAPTRQDALDAADELVDRLHARLGPRVAAIISLEELP
# Molecular target: MAP1LC3A, Q9H492
# Experiment: median log2 fold change of GCK-ALFA target abundance (FLAG IP / Myc IP barcode read proportion) (log2 ratio); each designed protein is fused to an ALFA-tag nanobody in HEK293 cells to bring the named protein to FLAG-tagged glucokinase (GCK); Myc marks an untargeted standard; higher = target protein stabilised (more abundant)
# Settings: target protein: 3xFLAG-MCP-GCK-ALFA reporter; HEK293 landing pad (RPLP)
# How it was run: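 The readout is target abundance, the per-binder median log2 ratio of FLAG to Myc barcode read proportions. It came from HEK293 landing-pad cells carrying a recombined ALFA-nanobody-fused binder library, induced with 2 μg mL^−1 doxycycline and transfected with a plasmid for a FLAG-tagged target and a Myc-tagged standard. After 48 h, lysates were immunoprecipitated with anti-FLAG and anti-Myc, and circular RNA barcodes were reverse transcribed, amplified and sequenced. Each barcode needed a proportion of at least 10^−7 in both replicates and each binder at least 3 barcodes per replicate, a pseudocount of 10^−6 was added, and the replicates were pooled.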
row,Binder,median log2 fold change
1,B1,0.0677
2,B2,-0.17
3,B3,-0.0158
4,B4,-0.126
5,B5,0.0592
6,B6,0.165
7,B7,0.195
8,B8,0.0115
9,B9,0.0449
10,B10,-0.0415
11,B11,0.137
12,B12,-0.324
13,B13,-0.0107
14,B14,0.0418
15,B15,-0.0771
16,B16,0.215
17,B17,0.206
18,B18,0.082
19,B19,-0.0903
